Patent publication US20230090771A1 (REGENTS OF THE UNIVERSITY OF MINNESOTA, published 2023)

Key:
[1] = target: T1, his6-SUMO-StrA, split borosin precursor StrA (Streptomyces sp. NRRL S-118)
T1 chain: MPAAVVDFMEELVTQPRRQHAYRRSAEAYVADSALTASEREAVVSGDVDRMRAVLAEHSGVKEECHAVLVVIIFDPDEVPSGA

[2] = target: T2, his6-SUMO-RceA, split borosin precursor RceA (Rhodospirillum centenum SW)
T2 chain: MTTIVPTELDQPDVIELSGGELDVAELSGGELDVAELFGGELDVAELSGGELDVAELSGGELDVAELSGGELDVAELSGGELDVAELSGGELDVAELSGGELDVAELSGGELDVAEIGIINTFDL

[3] = target: T3, his6-SonA, split borosin precursor SonA (Shewanella oneidensis) with N-terminal hexa-histidine tag, co-expressed with SonM
T3 chain: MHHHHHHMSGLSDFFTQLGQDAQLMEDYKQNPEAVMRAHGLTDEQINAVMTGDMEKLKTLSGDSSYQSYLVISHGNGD

[4] = target: T4, his6-SUMO-BstA, split borosin precursor BstA (Burkholderia stabilis)
T4 chain: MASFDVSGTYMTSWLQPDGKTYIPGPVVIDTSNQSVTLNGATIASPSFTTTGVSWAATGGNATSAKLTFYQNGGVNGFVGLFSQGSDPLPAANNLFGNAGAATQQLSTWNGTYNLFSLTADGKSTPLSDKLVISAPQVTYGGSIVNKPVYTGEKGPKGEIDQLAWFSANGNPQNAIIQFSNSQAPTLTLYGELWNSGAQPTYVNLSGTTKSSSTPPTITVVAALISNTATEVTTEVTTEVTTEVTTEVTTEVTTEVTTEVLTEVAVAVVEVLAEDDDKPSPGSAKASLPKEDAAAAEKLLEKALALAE

B1: his6-SUMO-StrM, split borosin alpha-N-methyltransferase StrM (Streptomyces sp. NRRL S-118) (protein)
chain: MQETTGNAQLVVVGTGFRAIGDLTVEARACLEQADKVLCLIGDPLVTRHIEKLNASVETLDVHYAVGKPRSASYEDMVEHIMSELHRDQFVCVALYGHPGVFAYTGHEAIRRAREEGIAARMLPACSAEDWLFADLGLDPGERGCQSFEATDFLIRHRVFDPTGLLILWQVGVIGMIDRDPGYDARPGVTTLTDALVASYGSGHPVTVYEASPYVTAEPRTTTVPLAELPDTPLSAASTLVVPPLPPRPVDRELLARLAARR
alpha-N-methylation of the precursor (LC-MS/MS) [1]: Alpha-N-methylations are observed as mass shifts in multiple fragments of the StrA core

B2: split borosin alpha-N-methyltransferase RceM (Rhodospirillum centenum SW) (protein)
chain: MRAAPMAETETPPAAPSPSAPERPRGSLTVVGTGLRALSHMTLEAISHIRDADRVFFSVPDGVTARQIRDINPEAVDLTQYYGEDKRRKQTYVQMSEVILREVRAGSAVTAVFYGHPGFFVFPARRILSIARKEGYRAVMLPGISSLDCLMADLRVDPSVNGCQILEATDLLLRNRPIITSGHVIILQVGSVGDSAFSFTAGFRHAKRAVLFERLIEAYGEEHRSVLYLAATYPGLDGQAVVRPLGAYRDPKVLASVPPAGTLYIPAKDMLPTDMAMAEKLGMSALVGPDAPVPAGPDSYGPFEAQAIAALDHYRPSPTWRPRTASKALQRVMTLLAGTPSVAAVYRKDPARLVDLHPDLTPAERKALLSRRAGPLNAVTAPPPEGAPPTVDEAGNGNGGDAPSEGETA
alpha-N-methylation of the precursor (LC-MS/MS) [2]: Alpha-N-methylations are observed as mass shifts in multiple fragments of the RceA core

B3: split borosin alpha-N-methyltransferase SonM (Shewanella oneidensis), untagged, co-expressed with his6-SonA (enzyme)
chain: MGSLVCVGTGLQLAGQISVLSRSYIEHADIVFSLLPDGFSQRWLTKLNPNVINLQQFYAQNGEVKNRRDTYEQMVNAILDAVRAGKKTVCALYGHPGVFACVSHMAITRAKAEGFSAKMEPGISAEACLWADLGIDPGNSGHQSFEASQFMFFNHVPDPTTHLLLWQIAIAGEHTLTQFHTSSDRLQILVEQLNQWYPLDHEVVIYEAANLPIQAPRIERLPLANLPQAHLMPISTLLIPPAKKLEYNYAILAKLGIGPEDLG
notes: also called WP_011071665
alpha-N-methylation of the precursor (LC-MS/MS) [3]: Alpha-N-methylations are observed as mass shifts in multiple fragments of the SonA core

B4: his6-SUMO-BstM, split borosin alpha-N-methyltransferase BstM (Burkholderia stabilis) (protein)
chain: MSEAKGRLVVIGSGIKAVSHFTLEAQAHIQQADIVLYAAADPVTDMWIESQNPNAFDLYQYYADDKARLITYVQMIERIMAEVRAGKYVCALFYGHPGVFVTPSHNAIAIARQEGFDAVMLPAVSAEDCLYADLGVDPSVPGMQIYEATDFLLRRRKVDTTANFVLWQVGCIGDLGFKFGGYKNDKFDVLLDYLEEIYGADHPAINYVANMFSGPPQIDRHVIGDYRDPEVKAKVSGISTFFIPAKDGIQSDAGMLAKLGLAKISEARRTPLICDREDYRVLADIARRNIHNHKVPPGYKYSFASDALYQTLLTLALDQRAQGEFQANPRAYLEARPGLTADERRSLLLQHTGVTRMMFKRDPDKEAVRFVGAALLDPALAREYRDRQAAAAQAVANHDIPVGEYEGVVASWLRGQGYAATPAAVTRAMEEVYTSKDHLSVA
alpha-N-methylation of the precursor (LC-MS/MS) [4]: Alpha-N-methylations are observed as mass shifts in multiple fragments of the BstA core
